Data: PubChem BioAssay (NCI)
Values joined by “and” are separate entries in the source; they are usually repeats but may differ in a detail not shown here. Equal values may be shown once.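 Values below derive from 48-hour exposures of cells grown in 96-well plates, with endpoints linearly interpolated between the two concentrations bracketing the appropriate inhibition level. GI50: concentration for 50% inhibition of growth. TGI is the concentration that stops growth completely.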

System: NCI-H322M lung
Test: NCI tumour cell line growth inhibition, 48 h

Row | Compound | TGI | GI50
1 | CCCCCCC(=O)O[C@H]1CC[C@H]2[C@@H]3CCC4C/C(=N/NC(=O)c5cccc6c(=O)c7ccccc7[nH]c56)C=C(C)[C@]4(C)[C@H]3CC[C@]12C (some centres undefined) | > 25 µM | –
2 | CC1CC2OC(=O)C(C)C2CC2(C)C(OC3OC(CO)C(O)C(O)C3O)OCCC12 (centres undefined) | > 100 µM | –
3 | C[C@]12CCc3sc(NCCc4ccccc4)nc3C1=CC[C@@H]1[C@@H]2CC[C@]2(C)C(=O)CC[C@@H]12 | > 100 µM | 96.9 µM
4 | CCC12CCCN(Cc3ccccc3)C1c1c(n(C)c3ccccc13)C(C(=O)OC)C2 (centres undefined) | > 239 µM | –
5 | CN1CNc2nc(N)n(C)c(=O)c2C1 | > 10 µM | –
6 | COC(=O)[C@@]12OC[C@]34[C@H]([C@@H](O)[C@@H]1O)[C@@]1(C)[C@H](O)C(=O)C=C(C)[C@@H]1C[C@H]3OC(=O)C(OC(C)=O)[C@@H]24 (some centres undefined) | 0.623 µM | 0.14 µM
7 | C=C1/C(=C\C=C2/CCC[C@]3(C)[C@@H]([C@H](C)CCCC(C)(C)O)CC[C@@H]23)C[C@@H](OC(=O)CBr)C[C@@H]1O | 28.3 µM | 14.8 µM
8 | Cc1cc(C(=C2C=CC(=Nc3ccccc3)C=C2)c2ccc(Nc3ccccc3)cc2)ccc1N | 2.48 µM | 1.19 µM
9 | Cn1c(O)c(C=Nc2ccccc2[N+](=O)[O-])c(=O)n(C)c1=O | > 100 µM | –
10 | CC(=O)C(=Cc1ccc(C=C(C(C)=O)C(C)=O)cc1)C(C)=O | 8.37 µM | –
11 | CC1=NN(c2nc(N)nc(CSc3nc4n(c(=S)n3)CCN4)n2)C(C)(C)C1 | 89.6 µM | –
12 | O=C(C[n+]1ccc2ccccc2c1)c1ccc2ccc3ccccc3c2c1 | 17.4 µM | –
13 | Nc1nc(N)c2nc(CNc3ccc(C(=O)NC(CC(=O)O)C(=O)O)cc3)cnc2n1 (centres undefined) | > 45.3 µM | 0.763 µM
14 | O=c1cccccc1[O-].O=c1cccccc1[O-].[O]=[U+2]=[O] | 96.9 µM | –
15 | CC(=O)O[C@H]1C(=O)[C@@]2(C)[C@H]([C@H](OC(=O)c3ccccc3)[C@]3(O)C[C@H](OC(=O)[C@H](O)[C@@H](NC(=O)c4cccc(N=[N+]=[N-])c4)c4ccccc4)C(C)=C1C3(C)C)[C@]1(OC(C)=O)CO[C@@H]1C[C@@H]2O | 0.213 µM | –
16 | C[C@H](NC(=O)c1ccc(CNC(=O)/C=C/c2cccc(Oc3ccccc3)c2)cc1)c1ccccc1 | > 100 µM | –
17 | Cc1c(N2C(=O)CS(=O)(=O)C2c2cccc(Oc3ccccc3)c2)c(=O)n(-c2ccccc2)n1C (centres undefined) | 66.7 µM | –
18 | C=CCC1(OC(C)=O)C2OC(=O)C1(O)OCC2O (centres undefined) | > 100 µM | –
19 | CN(C)C(=S)/N=c1\ssc(=S)n1Cc1cccnc1 | > 100 µM | –
20 | COC(=O)CC1NC(=O)[C@@H]1C(C)O (some centres undefined) | > 100 µM | –
21 | CCn1c(SCC(=O)NNC(=S)Nc2ccc([N+](=O)[O-])cc2)nc2ccccc2c1=O | > 100 µM | –
22 | COc1cccc2c1Cc1cc(-c3ccccc3)[n+](C)n1-2 | 83.2 µM | –
23 | C1=CC=C2NCCCCCCCNC3=CC=CC=CC3=NCCCCCCCN=C2C=C1 | > 100 µM | –

Row | Compound | TGI | GI50
24 | O=S(Nc1ccccc1)c1cccc(Cl)c1 (centres undefined) | > 100 µM | –
25 | CNC(=O)OCc1c(CO)nc(SC)n1C | > 100 µM | –
26 | O=C1NCc2ccccc2S(=O)(=O)n2cccc21 | > 100 µM | –
27 | COc1cccc2c1C(=O)c1c(O)c3c(c(O)c1C2=O)CC(O)(C(O)CO)CC3OC1CC(N2CCOCC2)C(O)C(C)O1 (centres undefined) | 0.0272 µM and 0.0678 µM | 0.0146 µM
28 | C1COCCN1.C1COCCN1.NC1CCCCC1N.[Cl-].[Pt+2] (centres undefined) | > 100 µM | > 100 µM
29 | COc1ccc(-n2cnc3c2NC(C)(C)N=C3C(N)=O)c(OC)c1 | > 100 µM | –
30 | Cc1cc2c(cc1Cl)S(=O)(=O)OC(c1ccc([N+](=O)[O-])cc1)=N2 | > 100 µM | –
31 | c1ccc(C(c2ccccc2)c2cccnc2)cc1 | > 100 µM | –
32 | Cc1cc2c(C)nn(Cc3ccccc3)c2c(C(N)=O)c1C | > 100 µM | –
33 | C[C@]12CCC(=O)C=C1CC[C@@H]1C2CC[C@]2(C)Nc3c(cnn3-c3ccccc3)CC12 (some centres undefined) | > 100 µM | –
34 | CCOc1ccc(/C(Cl)=C(\C=O)c2ccc(OC)c(OC)c2)cc1OCC | > 100 µM | –
35 | NC(=O)c1ccccc1Nc1ccc2nnc(-c3ccncc3)n2n1 | 14.9 µM | 3.63 µM
36 | O=c1ccn([C@@H]2C[C@@H]2CO)c(=O)[nH]1 | > 100 µM | –
37 | COC1=CC(c2ccc[nH]2)=N/C1=C\c1[nH]c(C)c(C(=O)CCCCC(=O)NC(C)(C)C)c1C | 19.6 µM | 4.23 µM
38 | C=CCC1(O)c2ccccc2C(=O)c2c(NCCN(CC(=O)OCC)CC(=O)OCC)cccc21 (centres undefined) | > 100 µM | > 100 µM
39 | O=C(OCN1C(=O)C2C3C=CC(C2C1=O)C1C2C(=O)N(COC(=O)C4CCCN4)C(=O)C2C31)C1CCCN1 (centres undefined) | > 100 µM | –
40 | Cc1cc(O)c(C2=NN(c3ccc(S(N)(=O)=O)cc3)C(c3ccccc3Cl)C2)cc1Cl (centres undefined) | 5.07 µM | 2.19 µM
41 | O=C(NC(=O)c1cn(CCN(CCO)C(=O)NCCCCCCNC(=O)N(CCO)CCn2cc(C(=O)NC(=O)OCc3ccccc3)c(=O)[nH]c2=O)c(=O)[nH]c1=O)OCc1ccccc1 | > 100 µM | –
42 | CCN(CC(=O)O)C(=O)c1cccnc1 | > 100 µM | –
43 | Cc1ccc(-c2nc(C#N)c(S(=O)(=O)n3nc(C)cc3N)o2)cc1 | 42.7 µM | 19.1 µM
44 | O=C(Cn1c(=O)c(-c2ccccc2)nc2ccccc21)Nc1ccc(F)cc1 | > 100 µM | 98.8 µM
45 | O=C(O)C1C2CCC(O2)C1C(=O)Nc1cccc2cccnc12 (centres undefined) | > 100 µM | –
46 | CCOC(=O)Cn1c(=O)c2nc(SC)sc2n(CC)c1=S | > 100 µM | –
